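Growth conditions: 96-well plates. Treatment: test compound, 48 hours, 5 concentrations. Analysis: linear interpolation between bracketing concentrations; unreached endpoints set to highest concentration. At the GI50, growth is halved. TGI: total growth inhibition.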

This passage reports GI50 and TGI results from PubChem BioAssay (NCI).

The test deals with NCI-H322M lung. The test can be described thus: NCI-60 cell line screen, 48 h.
With `O=C1c2ccn(CCCCNC(CO)(CO)CO)c2C(=O)c2c1c(O)c1ccccc1c2O`, the GI50 was 0.837 µM and the TGI amounted to 2.12 µM.

As to `CCC1OC2C(CC=C(C)C)=C3OC(C)(O)C(C)(CC)C(OC(=O)c4ccccc4)C3=C3OC(=O)C=C1C32` (configuration not stated), the TGI is greater than 100 µM.

On to `Cc1ccc2c(c1CCCC(C)(C)O)C(=O)C(=O)C(C(C)C)=C2O`, for which the TGI was greater than 100 µM.

In turn, `CCCS(=O)(=O)Nc1ccc(Nc2c3ccccc3nc3ccccc23)c(OC)c1` gave a TGI of 10.6 µM.

For `CN(C)C1=Nc2ccccc2C(=S)N2CSCC12` (configuration not stated), the TGI is greater than 100 µM.

For `COc1cc2c(cc1OCc1ccccc1)CNCC2`, the TGI is greater than 100 µM.

On to `N#CC(/C(=N/NC(=O)C(=O)NN)C(=O)NC12CC3CC(CC(C3)C1)C2)c1ccccc1` (configuration not stated), for which the TGI was greater than 100 µM.

Take `CCN1CCN(c2ccc(Nc3ccnc4ccc5nn(C)nc5c34)cc2)CC1`: the TGI came out at 26.7 µM.

In turn, `CCOC(=O)CC1CCN(C(=O)c2ccccc2)C2Cc3c([nH]c4ccccc34)C12C[N+](=O)[O-]` (configuration not stated) registered a TGI greater than 100 µM.

For `CC(C)CC1[C@@H](OCc2ccccc2)COS(=O)N1Cc1ccccc1` (some centres not stated), the TGI was greater than 100 µM.

`O=c1cc(-c2ccccc2)[nH]c2cc3c(cc12)OCO3`: the TGI is greater than 100 µM.

The molecule `O=C1NC(=O)C(CCO)(c2ccccc2)C(=O)N1` returned a TGI greater than 100 µM.

With `CN(C)Cc1c[nH]c2c1C(=O)c1c(c(O)c3ccccc3c1O)C2=O`, the GI50 was 2.83 µM and the TGI is 9.35 µM.

For the molecule `O=C(CC(c1ccccc1)N1CCCCC1)c1ccccc1` (configuration not stated), the TGI is 31.4 µM.

Molecule `CC(=O)OCC1OC(Nc2ncc(-c3ccc(C)cc3)s2)C(OC(C)=O)C(OC(C)=O)C1OC(C)=O` (configuration not stated) came in with a TGI greater than 100 µM.

In turn, `O=C1NC(=O)C(c2c[nH]c3cc(Br)ccc23)=C1c1cn(C(c2ccccc2)(c2ccccc2)c2ccccc2)cn1` had a TGI of 52.8 µM.

`Cc1cn2c(/C=C3/C(=O)Nc4ccccc43)c(-c3ccc(Cl)cc3)nc2s1`: the GI50 is 7.64 µM and the TGI turned out to be 14.9 µM.

The molecule `O=C(Nc1ccc([N+](=O)[O-])cc1)C1C(=O)C(=O)N(c2ccc([N+](=O)[O-])cc2)C1=O` (configuration not stated) came in with a TGI greater than 100 µM.

Molecule `CO[C@H]1[C@@H](O)[C@@H](C)O[C@@H](O[C@H]2CC[C@@]3(C)[C@H](CC[C@@H]4[C@@H]3CC[C@]3(C)[C@@H](C5=CC(=O)OC5)[C@@H](OC(C)=O)C[C@]43O)C2)[C@@H]1O` came in with a TGI of 0.198 µM.

Consider `O/N=C\c1c(O)ccc2ccccc12`, for which the TGI was greater than 100 µM.

As to `CCOC(=O)c1[nH]c(COC(C)=O)c(CCCOC(C)=O)c1CCCOC(C)=O`, the TGI was greater than 100 µM.

Molecule `COc1ccccc1/C=C/c1cnccn1` displayed a TGI greater than 10 µM.

In turn, `C#CCn1ncc2c(SCc3ccccc3)ncnc21` gave a TGI greater than 100 µM.

With `COc1ccc(-c2cc(-c3cccn3C)c(C#N)c(N)n2)cc1OC`, the GI50 was greater than 100 µM and the TGI is greater than 100 µM.

Turning to `O=c1[nH]c2cc(Cl)ccc2n1C1CCN(CCCC(c2ccc(F)cc2)c2ccc(F)cc2)CC1`, the GI50 is 1.84 µM and the TGI was 3.63 µM.

For `Nc1ccncc1/C=C1/C(=O)Nc2ccccc21`, the GI50 was 29.7 µM and the TGI was greater than 100 µM.

Regarding `Cc1sc2nc(NCCc3c[nH]c4ccc(Cl)cc34)[nH]c(=O)c2c1C`, the GI50 was 3.51 µM and the TGI came to 17.3 µM.

The molecule `O=C(O)c1nc(-c2ccccn2)c(-c2ccccn2)nc1C(=O)O` registered a TGI of 11.6 µM.

The molecule `N#Cc1c(-c2ccccc2)[nH]c2ccccc2c1=O` displayed a TGI greater than 100 µM.

Regarding `OCCCCC#Cc1ccccc1C#Cc1cccc(O)c1`, the GI50 was 14.6 µM and the TGI was determined as 35.5 µM.

Consider `CCOC(=O)C1N(S(=O)(=O)c2ccc(C)cc2)CCC12C(c1ccc(OC)cc1)NC1CCCCC12` (configuration not stated), for which the TGI is greater than 100 µM.

`CCN(CC)c1ccc2cc(-c3nnc(-c4ccccc4)o3)c(=O)oc2c1` came in with a TGI greater than 100 µM.

`Nc1nc(Br)nc2c1ncn2C1CC(O)C(CO)O1` (configuration not stated): the GI50 is greater than 100 µM and the TGI is greater than 100 µM.

Take `COc1ccc(-n2cc(-c3ccc(Cl)c(Cl)c3)nc2SCc2cccc(C#N)c2)cc1`: the GI50 was greater than 100 µM and the TGI is greater than 100 µM.

`O=C1C(Cl)C(c2ccccc2)N1n1cnc2ccccc2c1=O` (configuration not stated): the TGI is greater than 100 µM.

Regarding `C#CC(=O)Nc1cccc(Nc2nc3c(c(NCc4ccccc4)n2)CCCC3)c1`, the GI50 was 2 µM and the TGI came to 4 µM.

For `O=C(CN(C1CCCCC1)C1CCCCC1)Nc1ccc(S(=O)(=O)c2ccc(NC(=O)CN(C3CCCCC3)C3CCCCC3)cc2)cc1`, the GI50 is 1.53 µM and the TGI stood at 2.9 µM.

With `Cc1ccc(S(=O)(=O)C2=Cc3ccc(C(F)(F)F)cc3C2(O)c2cccc(C(F)(F)F)c2)cc1` (configuration not stated), the TGI was determined as 14.5 µM.

In turn, `COC(=O)C1OC(Oc2cc(O)c3c(=O)cc(-c4ccc(O)cc4)oc3c2)C(O)C(O)C1O` (configuration not stated) showed a TGI greater than 100 µM.

As for `CCCCCCCCCc1cc(=O)c2c(O)cccc2o1`, the TGI is greater than 100 µM.

Molecule `CC(C)c1ccccc1S(=O)c1ccccc1C(C)(C)O` (configuration not stated) yielded a TGI greater than 100 µM.

`CN(C)C(=O)NCCN1CCCCCc2ccccc21` displayed a TGI greater than 100 µM.

Take `Cc1ccc(Nc2nc(N)c(C(=O)c3ccc(C#N)cc3)s2)cc1`: the GI50 is 0.907 µM and the TGI was greater than 100 µM.

Molecule `Cn1ccc(C(=O)NCCOCCNC(=O)c2ccn(C)c(=O)c2O)c(O)c1=O` showed a TGI greater than 100 µM.

In the case of `O=C(N/N=C\c1cc(Br)ccc1O)c1ccncc1`, the GI50 is 5.46 µM and the TGI was greater than 100 µM.

Regarding `O=C1CSC(Cc2nc3ccccc3[nH]2)=N1`, the TGI was determined as 94.1 µM.

In the case of `Fc1ccc(Nc2cc(-n3nnc4ccccc43)nc3ccccc23)cc1`, the GI50 was 20.2 µM and the TGI is greater than 70.6 µM.

In turn, `NC(N)=N/N=C/c1cc(Cl)cc(Cl)c1O` yielded a TGI greater than 100 µM.

For the molecule `COc1ccc(/C=c2/sc3n(c2=O)C(c2ccc(OC)c(OC)c2)C2=C(N=3)c3cc(F)ccc3OC2)cc1` (configuration not stated), the GI50 was 18.7 µM and the TGI is greater than 88.8 µM.

`N#C/C(=C\c1ccc(O)c(O)c1)C(N)=O` gave a TGI greater than 100 µM.

In turn, `CCOC(=O)C1(C(=O)OCC)CN(CC)CN(c2ccccc2)C1` showed a TGI greater than 100 µM.

For `Cc1c[n+](Cc2ccc3ccccc3c2)cn1Cc1ccc2ccccc2c1`, the GI50 is 2.87 µM and the TGI worked out at 10.3 µM.

`OCC1OC(n2cnc3c2NC=NC[C@H]3O)C(O)C1O` (some centres not stated) had a TGI greater than 450 µM.

On to `Cc1cc(C)n(CCNCCn2nc(C)cc2C)n1`, for which the TGI is greater than 100 µM.

Take `COc1ccc2c(c1C)C(=O)C(O)(CC=C(C)C)O2` (configuration not stated): the TGI is greater than 100 µM.

Molecule `COc1ccc(C(=O)C(CO)Oc2ccccc2OC)cc1OC` (configuration not stated) returned a TGI greater than 100 µM.

Regarding `CCOC(=O)C1=C(Nc2cccc(OC)c2)OCC1=O`, the TGI is greater than 100 µM.

Molecule `COc1ccc(CCNC2=CC(=O)c3ncccc3C2=O)cc1OC` had a TGI of 2.95 µM.

`C/C(=C1/CCCC2(N=NCC2c2ccccc2)C1=O)c1ccccc1` (configuration not stated) showed a TGI greater than 100 µM.

`O=c1[nH]cc(COCC(F)(F)C(F)(F)C(F)(F)C(F)F)c(=O)[nH]1` had a TGI greater than 100 µM.

Turning to `CN1CCOC1(C)CO` (configuration not stated), the TGI was greater than 100 µM.

Molecule `Cc1cn(C2CC(N(O)Cc3ccccc3)C(CO)O2)c(=O)[nH]c1=O` (configuration not stated) showed a TGI greater than 100 µM.

The molecule `CSC1(CC(=O)N(C)C)C(=O)Nc2ccccc21` (configuration not stated) returned a TGI greater than 100 µM.

The molecule `CC1=CC(C2/C(=N/O)C=C(C)CC2(C)C)C(O)C(C)(C)C1` (configuration not stated) displayed a TGI of 32.8 µM.

Regarding `Cc1cccc2c1[C@]13OC(C)[C@]4(C)CC5OC(=O)[C@@]1(C)[C@@H]5[C@]34C(=O)O2` (some centres not stated), the TGI is greater than 100 µM.

On to `COc1ccc2c(c1)CC[C@@H]1[C@@H]2CC[C@]2(C)C(=O)/C(=C/c3ccc(OC)c(OC)c3)C[C@@H]12`, for which the TGI is greater than 100 µM.

Consider `COC(COC(=O)N1CCN(C=O)CC1)C1=C(N2CC2)C(=O)C(C)=C(N2CC2)C1=O` (configuration not stated), for which the TGI worked out at 5.41 µM.

As for `NC(=O)C(=CNc1nc(-c2ccc(Cl)c(Cl)c2)cs1)C(N)=O`, the GI50 was 29.6 µM and the TGI is greater than 100 µM.

Consider `N#CSc1nc[nH]c1C(N)=O`, for which the TGI is greater than 100 µM.

Take `CN(Nc1cc(=O)[nH]c(=O)[nH]1)c1ccccc1`: the TGI is greater than 100 µM.

`O=C(O)c1ccccc1-c1ccccc1C(=O)Nc1ccc2c(c1)Cc1cc(F)ccc1-2` returned a TGI of 70.8 µM.

For the molecule `COC1=C(Br)[C@H](O)[C@@]2(C=C1Br)CC(C(=O)NCCCCCN=C(N)N)=NO2`, the TGI is greater than 10 µM.

On to `CCN(CC)CC(C)(C)C(=O)/C=C/c1ccc(Cl)c(Cl)c1`, for which the GI50 was 1.59 µM and the TGI was 3.08 µM.

As for `CC(=O)Oc1ccccc1C(=O)N=C1[Se]CCN1C(=O)c1ccccc1OC(C)=O`, the GI50 is 0.585 µM and the TGI came to 3.07 µM.

Take `NC1CCCC[C@H]1N.N[C@@H]1CCCC[C@@H]1N.O=C(P(=O)([O-])[O-])P(=O)([O-])[O-].[Pt+4].[Pt+4]`: the GI50 was greater than 100 µM and the TGI was greater than 100 µM.

`CN=NN(C)C(=O)NC` had a TGI greater than 100 µM.

In the case of `COc1ccc(C2C(C#N)=C(N)OC3=C2COc2ccc(F)cc23)cc1OC` (configuration not stated), the GI50 is 21.7 µM and the TGI was found to be 72.8 µM.

For the molecule `O=C1/C(=C\c2ccc([N+](=O)[O-])o2)SC2N=C(COc3ccc(Cl)cc3)NN12` (configuration not stated), the TGI turned out to be 35.1 µM.

Take `Cc1ccc2nc(-c3ccc(N)c(I)c3)sc2c1`: the TGI was 27.4 µM.

With `Cc1c(C2Nc3ccccc3C2C)[nH]c2ccccc12` (configuration not stated), the GI50 was 16.1 µM and the TGI came out at 36.9 µM.

The molecule `CCOC(=O)C(N=Nc1ccc(S(N)(=O)=O)cc1)C(C)=O` (configuration not stated) showed a TGI greater than 100 µM.

The molecule `N#Cc1sc2nc(/C=C3/C=CC=CC3=O)c(O)n2c1N` came in with a TGI greater than 100 µM.

For the molecule `CC1=NC(=Cc2ccc(O)cc2)C(=O)N1n1c(-c2ccccc2)nc2ccccc2c1=O`, the TGI was greater than 100 µM.

Turning to `COc1ccc(C[N+]23C(CC[C@H]2c2ccccc2)CC[C@H]3c2ccccc2)cc1` (some centres not stated), the TGI was greater than 100 µM.

`Nc1ccc(C(=O)NN2C(=O)C(Cl)C2c2ccccc2Cl)cc1` (configuration not stated) displayed a TGI of 28.5 µM.

Turning to `CC(=O)c1sc2c(c1OC(=O)c1cccs1)c(=O)n(-c1ccccc1)c(=S)n2-c1ccccc1`, the TGI turned out to be 45.5 µM.

On to `COc1cc2cn3c4ccc(O)cc4[nH]c(=O)c3c2cc1OC`, for which the GI50 was 0.0597 µM and the TGI came out at 1.97 µM.

For the molecule `O=c1c(-c2ccccc2)c(SCCCN2CCN(c3cccc(Cl)c3)CC2)n(-c2ccccc2)c(=S)n1-c1ccccc1`, the TGI was greater than 100 µM.
